Assay results from US20190309084A1 (ALLIGATOR BIOSCIENCE, published 2019).

Molecular target: T1, Human GITR (Acro Biosystems, #GIR-H5228) (human, UniProt Q9Y5U5 26-161)
T1 construct: Bought recombinant protein, amine-coupled to the sensor tips; also called hGITR
T1 sequence: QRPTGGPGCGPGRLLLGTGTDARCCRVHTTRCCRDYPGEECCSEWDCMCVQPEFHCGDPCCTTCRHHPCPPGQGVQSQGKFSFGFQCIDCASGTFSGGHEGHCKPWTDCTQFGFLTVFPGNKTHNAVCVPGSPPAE
Assay: BLI (Octet RED96), GITR amine-coupled to AR2G tips, bispecific as analyte, 1:1 fit

Kd: 0.673 nM
koff: 0.000146 s⁻¹
kon: 217000 M⁻¹ s⁻¹
B1: GITR/CTLA-4 bispecific antibody 2396/2397 (bispecific antibody)
VH: [left out - about 100 residues]AYPVHGYWVFDYWGQGTLVTVSS
light: [left out - about 200 residues]SGGGGSGGGGSAPLKIQAYFNETADLPCQFANSQNLSLSELVVFWQDQENLVLNEVYLGKERFDSVDSKYMGRTSFDSDSWTLRLHNLQIKDKGRYQCIIHHKKPTGMINIHQMNSELSVLA
